The supplement of paper PMC4604168 (melanoma cell lines)
Some of the results follow. Single values are uncertain, as repeats are few or missing.

system: RVH-421; experiment: cell count relative to DMSO control; melanoma cells; higher = more viable cells; details: library dose: low library concentration; 72 h
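Note: cell number obtained by counting DAPI-stained nuclei in high-throughput microscope images with image analysis software, screen run in 1,536-well plates.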

Row | SMILES | cell count
1 | CC(=O)O[C@@]12CO[C@@H]1C[C@H](O)[C@@]1(C)C(=O)[C@H](O)C3=C(C)[C@@H](OC(=O)[C@H](O)[C@@H](NC(=O)OC(C)(C)C)c4ccccc4)C[C@@](O)([C@@H](OC(=O)c4ccccc4)[C@H]21)C3(C)C [Docetaxel] + C=CCn1c(=O)c2cnc(Nc3ccc(N4CCN(C)CC4)cc3)nc2n1-c1cccc(C(C)(C)O)n1 [MK1775] (first compound 0.0001 µM, partner dose 0.02 µM) | 53.8%
2 | Nc1nc(F)nc2c1ncn2[C@@H]1O[C@H](CO)[C@@H](O)[C@@H]1O [fludarabine] + Cc1cc([N+](=O)[O-])ccc1NS(=O)(=O)c1cc(Cl)ccc1Cl [FH535] (first compound 0.2 µM, partner dose 1 µM) | 98.5%
3 | CC(=O)O[C@@]12CO[C@@H]1C[C@H](O)[C@@]1(C)C(=O)[C@H](O)C3=C(C)[C@@H](OC(=O)[C@H](O)[C@@H](NC(=O)OC(C)(C)C)c4ccccc4)C[C@@](O)([C@@H](OC(=O)c4ccccc4)[C@H]21)C3(C)C [Docetaxel] + O=S(=O)(c1ccccc1)N(CC(F)(F)F)c1ccc(C(O)(C(F)(F)F)C(F)(F)F)cc1 [T0901317] (first compound 0.0001 µM, partner dose 1.4 µM) | 79.9%
4 | CC(=O)c1c(C)c2cnc(Nc3ccc(N4CCNCC4)cn3)nc2n(C2CCCC2)c1=O [palbociclib] + CC(C)(C)c1cnc(CSc2cnc(NC(=O)C3CCNCC3)s2)o1 [SNS-032] (first compound 0.04 µM, partner dose 0.01 µM) | 73.6%
